Values joined by “and” are separate entries in the source; they are usually repeats but may differ in a detail not shown here. Identical values can stand only once. The whole screen tested about 350,000 compounds, of which about 9,900 (2.8%) were called active. This list was built around the results that the source calls inconclusive (neither active nor inactive); the mix of calls is not that of the screen. The call rests on the fitted dose curve; in most records, active means well fitted activation curve with a large enough effect; inconclusive means small, poorly fitted or top-dose-only effect; inactive means no such curve, though single readings can be large or run the other way. Where the call is inconclusive, the potency comes from a doubtful curve fit. Some structures have more than one record in an assay (separate samples or runs), and their calls can disagree.
Experiment: A quantitative high throughput screen for small molecules that induce DNA re-replication in MCF 10a normal breast cells. Further: nearly all actives have a fitted effect of over 50% in size. On activity, positive = re-replication: % of control where 0% means no effect.
Details: MCF 10A DNA re-replication, Hoechst nuclear intensity, 48 h; activity, positive = re-replication: at 46.1 µM (top of the series)
In the case of `O=c1cc(C(F)(F)F)[nH]c2c(OC(F)(F)F)cccc12`, the Potency is reported as inconclusive: 20.6 µM [activator, single point]. In the case of `CN(C)c1nc(N)nc(CSc2nnnn2-c2ccc(F)cc2)n1`, the Potency is reported as inconclusive: 20.6 µM [activator, partial curve, poor fit]. In the case of `COc1ccc(C(=O)NCc2ccc3c(c2)OCO3)c(OC)c1`, the Potency is reported as inconclusive: 29.1 µM [activator, single point]. In the case of `CCCCc1nnc(NC(=O)C2CCN(c3ncnc4sc(C)c(C)c34)CC2)s1`, the Potency is reported as inconclusive: 29.1 µM [activator, partial curve, poor fit]. For `CCN(CC)CCCN(Cc1cc2cc3c(cc2[nH]c1=O)OCO3)C(=S)Nc1ccc(OC)cc1`, the Potency was inconclusive: 20 µM [activator, single point]. For `COC(=O)C1=CNC=C(C(=O)OC)C1c1ccccc1Cl`, the Potency was inconclusive: 29.1 µM [activator, single point]. In the case of `COc1cc(-c2c(-c3cc(OC)c(OC)c(OC)c3)noc2C)ccc1F`, the Potency is reported as inconclusive: 0.164 µM [activator, full curve, poor fit]. With `COc1ccc(C(=O)Nc2cccc(C(=O)Nc3cc(C)ccn3)c2)cc1` the “activity, positive = re-replication” value was inactive: 1.32%. With `CCc1ccc(NC(=O)c2cnn(-c3ccccc3)c2C)cc1` the “activity, positive = re-replication” value was inactive: -10.8%. With `CC(=O)OC1CCC2(C)C(CCC3C2CC(=NO)C2(C)C(C(C)OC(C)=O)CCC32)C1` (configuration not stated) the “activity, positive = re-replication” value was inactive: 27.9%. For `COc1ccc(S(=O)(=O)N2CCCC(C(=O)NCc3ccccn3)C2)cc1Cl` (configuration not stated), the Potency was inconclusive: 23.1 µM [activator, single point]. In the case of `O=C(NCc1cccc(Cl)c1)c1ccc(S(=O)(=O)Nc2cccc(C(F)(F)F)c2)cc1`, the Potency is reported as inconclusive: 16.4 µM [activator, single point]. For `COc1ccccc1Cn1c(C(C)C)nc2ccccc21`, the Potency was inconclusive: 16.4 µM [activator, single point]. For `NC(=O)[C@@H]1CCCN1Cc1nc(-c2ccc(C(F)(F)F)cc2)no1`, the “activity, positive = re-replication” value was inactive: -7.07%. For `Cc1[nH]nc(N=CC2=C(O)CC(C)(C)CC2=O)c1-c1ccc(Cl)cc1`, the Potency was “inactive and active: 18.4 µM”. With `O=C(NNc1ccc(-c2csnn2)cc1)c1cc(Cl)cc(Cl)c1` the Potency was inconclusive: 29.1 µM [activator, single point]. For `Cc1ccc2nc(N(CCCN(C)C)C(=O)c3ccc4c(c3)CCCC4)sc2c1`, the Potency was inconclusive: 18.4 µM [activator, single point]. In the case of `O=c1c(Cl)c(Cl)cnn1-c1ccccc1`, the Potency is reported as active: 3.66 µM. With `COc1ccccc1N1CCN(C(=O)c2oc3ccccc3c2C)CC1` the Potency was inconclusive: 23.1 µM [activator, single point]. For `C[C@H](Cc1ccccc1)Nc1ncnc2c1ncn2[C@@H]1O[C@H](CO)[C@@H](O)[C@H]1O`, the “activity, positive = re-replication” value was inactive: 0.739%. In the case of `COc1ccc(C)cc1NC(=O)C(Sc1nnc(-c2cccs2)o1)c1ccccc1` (configuration not stated), the Potency is reported as inconclusive: 23.1 µM [activator, single point]. In the case of `Cc1ccc(-n2nnnc2SCn2nnc3ccccc3c2=O)cc1`, the “activity, positive = re-replication” value is reported as inactive: -1.88%. With `CC1Cc2ccccc2N1C(=O)CSc1nnc(-c2ccccc2)c(-c2ccccc2)n1` (configuration not stated) the Potency was inconclusive: 7.31 µM [activator, partial curve, poor fit]. With `O=C(NCc1ccc(Cl)cc1)c1ccc(OCC2CCCO2)cc1` (configuration not stated) the “activity, positive = re-replication” value was inactive: 6.98%. In the case of `CC(C)(C)NC(=O)NC(=O)CSc1n[nH]c(-c2ccccc2Br)n1`, the Potency is reported as inconclusive: 16.4 µM [activator, partial curve, poor fit]. In the case of `COc1cccc(-n2nnnc2SCC(=O)Nc2cccc(C)n2)c1`, the Potency is reported as inconclusive: 20.6 µM [activator, partial curve, poor fit]. In the case of `Cc1cc(N(C(=O)c2ccco2)C(C(=O)NC2CCCCC2)c2ccccc2)ccc1-n1cnnn1` (configuration not stated), the Potency is reported as inconclusive: 20.6 µM [activator, single point]. For `Cc1ccccc1OCCC(=O)OCC(=O)NC1CCCCC1`, the Potency was inconclusive: 6.51 µM [activator, single point]. For `O=C(Nc1ccccc1)c1nnn(Cc2ccccc2)c1NC(=O)C(F)(F)F`, the Potency was inconclusive: 8.2 µM [activator, partial curve, poor fit]. With `CC(C)C(C(=O)NCC1CCCO1)N(Cc1ccccc1)C(=O)CNS(=O)(=O)c1ccccc1` (configuration not stated) the Potency was inconclusive: 18.4 µM [activator, single point]. In the case of `CC(C)Cn1c(N)c(/C=N/NC(=O)c2ccc(Cl)cc2)c(=O)n(C)c1=O`, the Potency is reported as inconclusive: 29.1 µM [activator, single point]. For `Cc1ccc(NS(=O)(=O)c2ccc(NC(=O)c3cccc(NC(=O)C(C)C)c3)cc2)cc1`, the Potency was inconclusive: 29.1 µM [activator, single point]. In the case of `COc1ccc(S(=O)(=O)N2CCCCCC2)cc1NC(=O)Cc1cc(OC)c(OC)c(OC)c1`, the “activity, positive = re-replication” value is reported as inactive: 7.89%. In the case of `COc1ccc(Cl)cc1NC(=O)C/C(C)=N/NC(=O)c1ccccc1[N+](=O)[O-]`, the “activity, positive = re-replication” value is reported as inactive: -0.785%. For `S=C1SCN(Cc2cccnc2)CN1Cc1cccnc1`, the Potency was active: 13 µM. In the case of `Cc1cc(C)n(-c2nc3ccccc3c(=O)n2OCc2ccc(F)cc2)n1`, the “activity, positive = re-replication” value is reported as inactive: 1.8%. For `CC(C)(C)OC(=O)N1CCC[C@H]1c1nnc(SCC(=O)Nc2ccc(Br)cc2)o1`, the Potency was inconclusive: 0.651 µM [activator, full curve, poor fit]. With `COCCN1C2=C(C(=O)CC(C)(C)C2)C(c2ccc(OC)c(OC)c2)C2=C1CC(C)(C)CC2=O` the “activity, positive = re-replication” value was inactive: 0.629%. In the case of `CCN(C(=O)c1cc2c(C)nc3ccccc3c2o1)c1cc(Cl)ccc1OC`, the Potency is reported as inconclusive: 20.6 µM [activator, single point]. For `CC(C)=NOc1nc(N(C)C)nc(N(C)C)n1`, the Potency was inconclusive: 29.1 µM [activator, single point]. In the case of `CC1CN(S(=O)(=O)c2ccc(NC(=O)c3cc(-c4ccccc4O)n[nH]3)cc2)CC(C)O1` (configuration not stated), the “activity, positive = re-replication” value is reported as inactive: 12.5%. For `Cc1ccc(NC(=O)Nc2nnc(-c3ccncc3)s2)cc1C`, the Potency was active: 16.4 µM. For `O=C(c1ccccc1)N(Cc1nc2ccccc2c(=O)[nH]1)C1CCCC1`, the Potency was inconclusive: 6.51 µM [activator, single point]. In the case of `Cc1ccccc1S(=O)(=O)N1CCN(C)CC1`, the Potency is reported as inconclusive: 23.1 µM [activator, single point]. In the case of `Cc1nc(SCC(=O)Nc2ccccc2)c2oc3ccccc3c2n1`, the Potency is reported as active: 11.6 µM. With `C=CCC[C@@H](Cc1ccc(F)cc1)C(=O)OC[C@@H](Cc1c[nH]c2ccccc12)NC(=O)[C@H](CC=C)CC(=O)N[C@H](CO)Cc1ccccc1` the Potency was active: 16.4 µM. For `O=C(CCCN1C(=O)/C(=C/c2ccccc2)SC1=S)NCCCn1ccnc1`, the Potency was inconclusive: 29.1 µM [activator, single point]. In the case of `COc1ccc(Br)cc1CNc1ccc(O)cc1`, the Potency is reported as inconclusive: 20.6 µM [activator, single point]. With `O=C1c2cccc3cccc(c23)C(=O)N1CCN1CCN(CC(O)COCc2ccc(Cl)cc2)CC1` (configuration not stated) the Potency was inconclusive: 29.1 µM [activator, single point]. With `O=C(O)c1cnn(-c2nc(-c3ccc(Cl)c(Cl)c3)cs2)c1C(F)(F)F` the Potency was inconclusive: 29.1 µM [activator, single point]. With `CCN(CC)c1ccc(/C=N/NC(=O)Cc2nnc(NC(=O)Nc3ccccc3)s2)cc1` the Potency was inconclusive: 2.31 µM [activator, full curve, poor fit]. For `CC(=C/c1ccccc1)/C=N/n1c(-c2ccncc2)n[nH]c1=S`, the “activity, positive = re-replication” value was inactive: 23.1%. With `CCOc1ccc(C(=O)OCC(=O)Nc2ccc(SC(F)F)cc2)cc1OCC` the Potency was inconclusive: 16.4 µM [activator, partial curve, poor fit]. For `COc1ccc(S(=O)(=O)Nc2ccc3c(c2)n(C)c(=O)n3C)cc1OC`, the Potency was inconclusive: 0.116 µM [activator, full curve, poor fit]. In the case of `CC(=O)OCC(=O)[C@@]12OC3(CCCC3)O[C@@H]1C[C@H]1[C@@H]3CCC4=CC(=O)C=C[C@]4(C)[C@@]3(F)[C@@H](O)C[C@@]12C`, the Potency is reported as inconclusive: 164 nM [activator, full curve, poor fit] and inconclusive: 32.6 µM [activator, partial curve, poor fit]. For `CCOc1ccc(C(NC(=O)c2ccco2)c2ccc(OC)c(OC)c2)cc1` (configuration not stated), the Potency was active: 3.66 µM. With `CCOc1cc(N2CCOCC2)c(OCC)cc1NC(=O)COC(=O)c1ccccc1C` the “activity, positive = re-replication” value was inactive: 10.6%. With `COC(=O)c1cccc(S(=O)(=O)N(Cc2ccco2)Cc2cc3cc(OC)c(OC)cc3[nH]c2=O)c1` the “activity, positive = re-replication” value was inactive: 2.69%. For `CCOc1ccc(Nc2nc(N)nc(CSC(=S)N3CCOCC3)n2)cc1`, the “activity, positive = re-replication” value was inactive: 3.4%. With `O=C(COc1ccc([N+](=O)[O-])cc1)N(C1CCCCC1)C1CCS(=O)(=O)C1` (configuration not stated) the “activity, positive = re-replication” value was inactive: 2.88%. In the case of `CCC(=O)Nc1cc(C(=O)NCC2CCCN2CC)c(OC)cc1N(C)C` (configuration not stated), the “activity, positive = re-replication” value is reported as inactive: -6.49%. For `CCOC(=O)C1(Cc2ccccc2)CCCN(Cc2cccc(C(C)=O)c2)C1` (configuration not stated), the “activity, positive = re-replication” value was inactive: 9.03%. For `O=C(NCCSc1ccccc1)c1ccccc1`, the Potency was inconclusive: 23.1 µM [activator, partial curve, poor fit]. With `COc1ccc(/C=N/n2cc(-c3ccccc3)nc2N)cc1` the Potency was active: 23.1 µM. With `CCOC(=O)c1sc(SCc2ccccc2)c2c1CC(C)(C)CC2=O` the Potency was inconclusive: 5.17 µM [activator, full curve, poor fit]. With `CCSc1nnc(NC(=O)CN2C(=O)N(C)C3(CCCCC3)C2=O)s1` the “activity, positive = re-replication” value was inactive: -0.0927%. With `CC(=O)c1ccc(Nc2cc(C)nc3ccc(C)cc23)cc1` the Potency was inconclusive: 20.6 µM [activator, single point].
Potency means the concentration at half of the fitted maximal effect; tags describe the fitted curve by direction and shape.
